# Measurements reported in the supplement of paper PMC8728848.
# The list shows a part of the results.
# B1: SP8524D-bot-399-27-399 (Bacteroides ovatus) (protein)
# chain: DAKYDTLDTHAYIEEALSSTSQKVTVQATGESFTTLNVHLSNLSSTDNHYKLVTDQSVLDTYNHINGTGYIMLPKDYYTLPETITVKAGQYAADALSIALKAFSQEMMKSGESYALPVKLVLQDGSISPMENTGTFVILAESIIEFSAPMFVGAPSLKANKFTESPETYSQYTIEVRFQVANTADRDRAVFKNGGDDANFILLRFEDPQSDNENYKAHSLVQIVGRNRLYLNPSNSFKPNEWQHLALVCDGSNYRLYINGVDSGVLSIPTGATTFSDVNWFCLGDDSYSRWGNCKILMSEARIWSVVRSASQIQNNMTQVSPKSVGLEAYWRFNEGQGNVFEDATGKGHTLTTSATPTWIDGILSTDKSTEWK
# How the values were obtained:
# Assay in all cases: glycan array binding signal (z-score within array); higher = stronger binding
# Settings in all cases: glycan notation: IUPAC condensed, linker removed
# Gal(b1-2)Gal = biological target: Gal(b1-2)Gal
# Procedure, shortened: (§1)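 Columns mapping to the same glycan were averaged after glycan names were converted to IUPAC-condensed notation. The data come from 3228 arrays in the Consortium for Functional Glycomics database, limited to those with an available protein sequence. Binding is reported as a within-array Z-score averaged across arrays of one protein sequence and across linkers.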
# Gal(b1-3)Gal = biological target: Gal(b1-3)Gal
# Procedure, shortened: as §1
# Gal(b1-3)Gal(b1-4)GlcNAc = biological target: Gal(b1-3)Gal(b1-4)GlcNAc
# Procedure, shortened: as §1
# Gal(b1-3)GalNAc = biological target: Gal(b1-3)GalNAc
# Procedure, shortened: as §1
# [1] = biological target: Gal(b1-3)GalNAc(a1-3)[Fuc(a1-2)]Gal(b1-4)Glc
# Procedure, shortened: as §1
# [2] = biological target: Gal(b1-3)GalNAc(a1-3)[Fuc(a1-2)]Gal(b1-4)GlcNAc
# Procedure, shortened: as §1
# Gal(b1-3)GalNAc(b1-3)Gal = biological target: Gal(b1-3)GalNAc(b1-3)Gal
# Procedure, shortened: as §1
# [3] = biological target: Gal(b1-3)GalNAc(b1-3)Gal(a1-4)Gal(b1-4)Glc
# Procedure, shortened: as §1
# [4] = biological target: Gal(b1-3)GalNAc(b1-4)Gal(b1-4)Glc
# Procedure, shortened: as §1
# [5] = biological target: Gal(b1-3)GalNAc(b1-4)[Neu5Ac(a2-3)]Gal(b1-4)Glc
# Procedure, shortened: as §1
# Gal(b1-3)GlcNAc = biological target: Gal(b1-3)GlcNAc
# Procedure, shortened: as §1
# [6] = biological target: Gal(b1-3)GlcNAc(a1-3)Gal(b1-4)GlcNAc
# Procedure, shortened: as §1
# [7] = biological target: Gal(b1-3)GlcNAc(a1-6)Gal(b1-4)GlcNAc
# Procedure, shortened: as §1
# Gal(b1-3)GlcNAc(b1-2)Man = biological target: Gal(b1-3)GlcNAc(b1-2)Man
# Procedure, shortened: as §1
# [8] = biological target: Gal(b1-3)GlcNAc(b1-2)Man(a1-3)[Gal(b1-3)GlcNAc(b1-2)Man(a1-6)]Man(b1-4)GlcNAc(b1-4)GlcNAc
# Procedure, shortened: as §1
# [9] = biological target: Gal(b1-3)GlcNAc(b1-2)Man(a1-3)[Gal(b1-3)GlcNAc(b1-2)Man(a1-6)]Man(b1-4)GlcNAc(b1-4)[Fuc(a1-6)]GlcNAc
# Procedure, shortened: as §1
# [10] = biological target: Gal(b1-3)GlcNAc(b1-2)Man(a1-3)[GlcNAc(b1-4)][Gal(b1-3)GlcNAc(b1-2)Man(a1-6)]Man(b1-4)GlcNAc(b1-4)GlcNAc
# Procedure, shortened: as §1
# [11] = biological target: Gal(b1-3)GlcNAc(b1-2)[Gal(b1-3)GlcNAc(b1-6)]Man(a1-6)[Gal(b1-3)GlcNAc(b1-2)Man(a1-3)]Man(b1-4)GlcNAc(b1-4)GlcNAc
# Procedure, shortened: as §1
# [12] = biological target: Gal(b1-3)GlcNAc(b1-3)Gal(b1-3)GlcNAc
# Procedure, shortened: as §1
# [13] = biological target: Gal(b1-3)GlcNAc(b1-3)Gal(b1-4)Glc
# Procedure, shortened: as §1
# [14] = biological target: Gal(b1-3)GlcNAc(b1-3)Gal(b1-4)GlcNAc
# Procedure, shortened: as §1
# [15] = biological target: Gal(b1-3)GlcNAc(b1-3)Gal(b1-4)GlcNAc(b1-2)Man(a1-3)[Gal(b1-3)GlcNAc(b1-3)Gal(b1-4)GlcNAc(b1-2)Man(a1-6)]Man(b1-4)GlcNAc(b1-4)GlcNAc
# Procedure, shortened: as §1
# [16] = biological target: Gal(b1-3)GlcNAc(b1-3)Gal(b1-4)GlcNAc(b1-2)[Gal(b1-3)GlcNAc(b1-3)Gal(b1-4)GlcNAc(b1-6)]Man(a1-6)[Gal(b1-3)GlcNAc(b1-3)Gal(b1-4)GlcNAc(b1-2)Man(a1-3)]Man(b1-4)GlcNAc(b1-4)[Fuc(a1-6)]GlcNAc
# Procedure, shortened: as §1
# [17] = biological target: Gal(b1-3)GlcNAc(b1-3)Gal(b1-4)GlcNAc(b1-3)Gal(b1-4)GlcNAc(b1-2)[Gal(b1-3)GlcNAc(b1-3)Gal(b1-4)GlcNAc(b1-3)Gal(b1-4)GlcNAc(b1-6)]Man(a1-6)[Gal(b1-3)GlcNAc(b1-3)Gal(b1-4)GlcNAc(b1-3)Gal(b1-4)GlcNAc(b1-2)Man(a1-3)]Man(b1-4)GlcNAc(b1-4)[Fuc(a1-6)]GlcNAc
# Procedure, shortened: as §1
# [18] = biological target: Gal(b1-3)GlcNAc(b1-3)Gal(b1-4)GlcNAc(b1-6)[Gal(b1-3)GlcNAc(b1-3)]Gal(b1-4)Glc
# Procedure, shortened: as §1
# [19] = biological target: Gal(b1-3)GlcNAc(b1-3)Gal(b1-4)[Fuc(a1-3)]GlcNAc
# Procedure, shortened: as §1
# [20] = biological target: Gal(b1-3)GlcNAc(b1-3)Gal(b1-4)[Fuc(a1-3)]GlcNAc(b1-6)[Gal(b1-3)GlcNAc(b1-3)]Gal(b1-4)Glc
# Procedure, shortened: as §1
# [21] = biological target: Gal(b1-3)GlcNAc(b1-3)GalNAc
# Procedure, shortened: as §1
# [22] = biological target: Gal(b1-3)GlcNAc(b1-6)Gal(b1-4)GlcNAc
# Procedure, shortened: as §1
# [23] = biological target: Gal(b1-3)GlcNAc(b1-6)GalNAc
# Procedure, shortened: as §1
# [24] = biological target: Gal(b1-3)GlcNAc(b1-6)[Gal(b1-3)]GalNAc
# Procedure, shortened: as §1
# Gal(b1-3)GlcNAc6S = biological target: Gal(b1-3)GlcNAc6S
# Procedure, shortened: as §1
# [25] = biological target: Gal(b1-3)[Fuc(a1-4)]GlcNAc
# Procedure, shortened: as §1
# [26] = biological target: Gal(b1-3)[Fuc(a1-4)]GlcNAc(b1-2)Man
# Procedure, shortened: as §1
# [27] = biological target: Gal(b1-3)[Fuc(a1-4)]GlcNAc(b1-2)Man(a1-3)[Gal(b1-3)[Fuc(a1-4)]GlcNAc(b1-2)Man(a1-6)]Man(b1-4)GlcNAc(b1-4)[Fuc(a1-6)]GlcNAc
# Procedure, shortened: as §1
# [28] = biological target: Gal(b1-3)[Fuc(a1-4)]GlcNAc(b1-3)Gal(b1-3)[Fuc(a1-4)]GlcNAc
# Procedure, shortened: as §1
# [29] = biological target: Gal(b1-3)[Fuc(a1-4)]GlcNAc(b1-3)Gal(b1-4)[Fuc(a1-3)]GlcNAc
# Procedure, shortened: as §1
binder,measurement,setting,value
B1,glycan array binding signal (z-score),Gal(b1-2)Gal,-0.194
same,glycan array binding signal (z-score),Gal(b1-3)Gal,-0.011
same,glycan array binding signal (z-score),Gal(b1-3)Gal(b1-4)GlcNAc,-0.023
same,glycan array binding signal (z-score),Gal(b1-3)GalNAc,-0.31
same,glycan array binding signal (z-score),[1],0.263
same,glycan array binding signal (z-score),[2],-0.073
same,glycan array binding signal (z-score),Gal(b1-3)GalNAc(b1-3)Gal,0.146
same,glycan array binding signal (z-score),[3],-0.491
same,glycan array binding signal (z-score),[4],0.485
same,glycan array binding signal (z-score),[5],-0.183
same,glycan array binding signal (z-score),Gal(b1-3)GlcNAc,0.089
same,glycan array binding signal (z-score),[6],0.336
same,glycan array binding signal (z-score),[7],-0.089
same,glycan array binding signal (z-score),Gal(b1-3)GlcNAc(b1-2)Man,0.099
same,glycan array binding signal (z-score),[8],-0.031
same,glycan array binding signal (z-score),[9],-0.351
same,glycan array binding signal (z-score),[10],0.168
same,glycan array binding signal (z-score),[11],0.024
same,glycan array binding signal (z-score),[12],-0.386
same,glycan array binding signal (z-score),[13],-0.359
same,glycan array binding signal (z-score),[14],-0.826
same,glycan array binding signal (z-score),[15],-0.128
same,glycan array binding signal (z-score),[16],0.43
same,glycan array binding signal (z-score),[17],0.663
same,glycan array binding signal (z-score),[18],-0.275
same,glycan array binding signal (z-score),[19],-0.174
same,glycan array binding signal (z-score),[20],-0.379
same,glycan array binding signal (z-score),[21],-0.467
same,glycan array binding signal (z-score),[22],0.021
same,glycan array binding signal (z-score),[23],0.738
same,glycan array binding signal (z-score),[24],0.059
same,glycan array binding signal (z-score),Gal(b1-3)GlcNAc6S,-0.686
same,glycan array binding signal (z-score),[25],-0.42
same,glycan array binding signal (z-score),[26],0.35
same,glycan array binding signal (z-score),[27],0.1
same,glycan array binding signal (z-score),[28],-0.253
same,glycan array binding signal (z-score),[29],0.225
